Results reported in paper PMC4336329 (PLoS ONE, 2015).
About 2,200 (0.71%) of roughly 310,000 compounds showed an effect of 50% or more. Effects have a minus sign here. The list shows a part of the results.

Target: human ether-à-go-go-related gene (hERG) potassium channel (human, UniProt Q12809)
Experiment: primary screen, population patch clamp on CHO cells stably expressing hERG

human ether-à-go-go-related gene (hERG) potassium channel, sequence (Q12809 whole entry, looked up): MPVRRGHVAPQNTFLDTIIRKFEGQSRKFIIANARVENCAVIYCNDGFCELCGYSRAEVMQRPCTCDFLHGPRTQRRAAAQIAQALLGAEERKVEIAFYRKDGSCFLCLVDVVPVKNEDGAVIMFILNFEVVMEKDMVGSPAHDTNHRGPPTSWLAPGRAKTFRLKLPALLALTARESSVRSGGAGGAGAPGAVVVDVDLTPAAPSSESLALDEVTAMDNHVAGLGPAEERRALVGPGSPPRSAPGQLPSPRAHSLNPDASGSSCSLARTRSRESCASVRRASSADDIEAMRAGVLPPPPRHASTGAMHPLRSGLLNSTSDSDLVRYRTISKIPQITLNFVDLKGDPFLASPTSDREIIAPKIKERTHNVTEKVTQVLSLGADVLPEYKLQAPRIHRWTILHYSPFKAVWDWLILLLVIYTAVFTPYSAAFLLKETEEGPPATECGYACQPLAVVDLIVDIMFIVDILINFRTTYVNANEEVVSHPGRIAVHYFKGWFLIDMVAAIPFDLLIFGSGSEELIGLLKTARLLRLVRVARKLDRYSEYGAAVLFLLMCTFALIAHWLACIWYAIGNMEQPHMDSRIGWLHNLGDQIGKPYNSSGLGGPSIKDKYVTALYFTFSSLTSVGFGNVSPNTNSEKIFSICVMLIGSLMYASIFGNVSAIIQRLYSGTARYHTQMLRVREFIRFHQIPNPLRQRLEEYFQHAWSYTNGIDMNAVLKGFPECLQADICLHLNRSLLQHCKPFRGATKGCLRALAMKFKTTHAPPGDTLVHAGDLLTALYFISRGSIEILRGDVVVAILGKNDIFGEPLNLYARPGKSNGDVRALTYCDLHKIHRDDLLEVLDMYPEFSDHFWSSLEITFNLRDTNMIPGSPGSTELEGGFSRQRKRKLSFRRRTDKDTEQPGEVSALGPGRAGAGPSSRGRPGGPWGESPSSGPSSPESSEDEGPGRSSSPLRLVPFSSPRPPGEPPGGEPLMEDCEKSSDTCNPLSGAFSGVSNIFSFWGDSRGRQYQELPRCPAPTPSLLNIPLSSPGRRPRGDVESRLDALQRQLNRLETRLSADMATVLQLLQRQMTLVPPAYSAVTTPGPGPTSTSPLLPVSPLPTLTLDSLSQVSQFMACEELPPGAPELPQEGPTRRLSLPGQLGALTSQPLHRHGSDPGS

| SMILES | hERG current change (%, negative = inhibition) at 1uM [%] |
| --- | --- |
| Cc1nc2ccccc2c(=O)n1NC(=O)C1CC1 | 11.6 |
| O=C(Nc1ccccc1-c1nnc(SCc2ccccc2Cl)o1)c1ccccc1 | -6.53 |
| Cc1cccc(N(CC(=O)NCCC2=CCCCC2)S(C)(=O)=O)c1C | 2.15 |
| O=C(c1ccc(Cl)s1)N1CCN(c2ccccc2)CC1 | -3.28 |
| CC(=O)N1CC(C)Sc2ccc(S(=O)(=O)NC(C)c3ccccc3)cc21 (stereo not shown) | 8.39 |
| COc1ccccc1C(=O)Nc1nc2cc3c(cc2s1)OCCO3 | 18.2 |
| CCOc1ccc(S(=O)(=O)NC2CCCCC2C)cc1 (stereo not shown) | 8.98 |
| Cc1ccc(C)c(S(=O)(=O)Nc2cc(SCC(=O)O)c(O)c3ccccc23)c1 | 6.16 |
| CC(=O)n1cc([C@@H]2C=C(C(=O)N3CCN(C)CC3)O[C@H](OCc3ccc(CO)cc3)C2)c2ccccc21 | -1.61 |
| Cc1ccc(CNC(=O)C2CCCN(c3cnccn3)C2)cc1 (stereo not shown) | 19.9 |
| COc1cccc(C(O)c2cnc(C(C)C)n2C)c1OC (stereo not shown) | 7.91 |
| CC(C)(C)OC(=O)NCCCCCNC(=O)c1[nH]cnc1C(=O)Nc1ccccc1 | -15.4 |
| Cc1cc(CN(C)C(=O)c2ccc3nc(Cc4ccccc4F)oc3c2)n[nH]1 | 10.9 |
| CCOCCCNC(=O)C(c1ccc(Cl)cc1)N(Cc1ccc2c(c1)OCO2)C(=O)CNC(C)=O (stereo not shown) | 15 |
| Cl.O=C(CN1CCCCCC1)Nc1ccc(Oc2ccccc2)cc1 | -5.19 |
| O=C(COC(=O)CCc1c[nH]c2ccccc12)NCc1ccc2c(c1)OCO2 | 5.89 |
| O=C(COc1ccc2c3c(c(=O)oc2c1)CCC3)Nc1ccc(CCO)cc1 | 15 |
| O=C(CSC1=NCCS1)Nc1cccc2ccccc12 | 13.9 |
| Cc1nc(C/C(=N\N)c2ccc(O)cc2O)cs1 | 9.62 |
| CCOC(=O)C1(CCc2ccccc2)CCN(C(=O)CN2C(=O)CSC2=O)CC1 | -1.8 |
| COc1ccc(S(=O)(=O)NC2CCc3ccccc32)cc1OC (stereo not shown) | 9.62 |
| O=C1NC2(CCCc3ccccc32)C(=O)N1CCOc1ccc(Br)cc1 (stereo not shown) | 2.5 |
| CNC(=O)Nc1ccc2snnc2c1 | 6.9 |
| CCc1ccc(/C=C/C(=O)C2C(=O)c3ccccc3C2=O)cc1 | 11.2 |
| CCS(=O)(=O)C(=C1Nc2ccccc2N1)S(=O)(=O)CC | 10.7 |
